Reference: article PMC4336329 (PLoS ONE, 2015)
In all, about 310,000 compounds went through this assay and about 14,000 (4.5%) showed an effect of 50% or more. Effects have a minus sign here. This is one part of the list.

target: human ether-à-go-go-related gene (hERG) potassium channel (human, UniProt Q12809); test: primary screen, population patch clamp on CHO cells stably expressing hERG
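Note: peak tail current of the secondary pulse compared with the same well before compound.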

Sequence of human ether-à-go-go-related gene (hERG) potassium channel (Q12809 whole entry, looked up): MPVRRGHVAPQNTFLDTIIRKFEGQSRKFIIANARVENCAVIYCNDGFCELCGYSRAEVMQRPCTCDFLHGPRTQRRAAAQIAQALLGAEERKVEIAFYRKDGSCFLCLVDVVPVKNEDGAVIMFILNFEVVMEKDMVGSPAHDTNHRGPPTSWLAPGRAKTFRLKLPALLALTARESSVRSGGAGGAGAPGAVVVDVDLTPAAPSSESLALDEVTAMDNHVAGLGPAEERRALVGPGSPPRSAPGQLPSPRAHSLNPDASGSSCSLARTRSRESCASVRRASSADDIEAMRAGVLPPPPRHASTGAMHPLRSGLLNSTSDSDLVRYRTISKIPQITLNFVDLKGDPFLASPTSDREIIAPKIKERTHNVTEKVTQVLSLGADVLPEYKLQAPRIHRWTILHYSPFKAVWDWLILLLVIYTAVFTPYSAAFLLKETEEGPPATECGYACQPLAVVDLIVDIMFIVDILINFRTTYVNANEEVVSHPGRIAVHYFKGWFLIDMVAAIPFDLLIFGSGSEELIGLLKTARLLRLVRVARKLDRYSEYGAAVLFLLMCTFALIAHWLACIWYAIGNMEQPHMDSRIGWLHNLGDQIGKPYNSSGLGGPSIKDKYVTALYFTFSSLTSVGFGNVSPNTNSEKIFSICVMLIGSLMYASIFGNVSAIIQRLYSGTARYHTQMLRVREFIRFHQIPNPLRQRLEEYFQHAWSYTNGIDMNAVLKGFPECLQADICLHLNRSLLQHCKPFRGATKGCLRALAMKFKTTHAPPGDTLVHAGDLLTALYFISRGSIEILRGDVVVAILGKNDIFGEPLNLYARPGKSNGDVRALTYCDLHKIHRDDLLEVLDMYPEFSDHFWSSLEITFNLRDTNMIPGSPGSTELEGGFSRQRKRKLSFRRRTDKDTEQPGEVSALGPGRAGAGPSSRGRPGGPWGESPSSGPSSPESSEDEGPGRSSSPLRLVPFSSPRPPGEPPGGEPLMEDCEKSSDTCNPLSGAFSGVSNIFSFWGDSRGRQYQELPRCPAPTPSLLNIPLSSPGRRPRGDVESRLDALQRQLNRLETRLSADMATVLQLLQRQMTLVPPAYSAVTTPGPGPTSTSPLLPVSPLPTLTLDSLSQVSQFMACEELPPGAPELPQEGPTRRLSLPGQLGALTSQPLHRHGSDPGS

| Structure (SMILES) | hERG current change (%, negative = inhibition) at 10uM [%] |
| --- | --- |
| Cc1ccc(S(=O)(=O)NC(=NC(C)C)c2ccccc2)cc1 | 1.25 |
| COc1ccc(S(=O)(=O)N2CCN(C(=O)C3CCCCC3)CC2)cc1 | 16.4 |
| COc1ccc(Nc2nnc(SCC3CCCO3)s2)cc1 (stereo not shown) | -5.7 |
| COC(=O)Cc1c[nH]c2cccc(OCC(O)CN(Cc3ccc([N+](=O)[O-])cc3)C(C)(C)C)c12.Cl (stereo not shown) | -4.66 |
| COc1ccc(S(=O)(=O)N2Cc3ccccc3CC2C(=O)N2CCOCC2)cc1 (stereo not shown) | -59.2 |
| CCc1nnc(NC(=O)c2ccc(-c3cccc(C(F)(F)F)c3)o2)s1 | 22 |
| CC1CCN(C(=O)C(=O)Nc2sc3c(c2C(=O)O)CC(C)(C)OC3)CC1 | 17.1 |
| COc1cc(C(=O)Nc2ccccc2SCc2cc(=O)n3nc(C)sc3n2)cc(OC)c1OC | 1.99 |
| O=C(NCCCN1CCCC1=O)c1ccc([N+](=O)[O-])s1 | -18 |
| O=C(Cc1coc2ccc3ccccc3c12)Nc1nnc(C2CC2)s1 | 14.3 |
| O=c1c(Cl)cc(Cl)nn1-c1ccccc1 | 2.74 |
| Cc1cccc(NC(=O)COc2cccc3c2CCN(C)C3=O)c1C | -12.7 |
| O=C(CN1CCCCCC1)Nc1ccc(Br)cc1[N+](=O)[O-] | 14.1 |
| O=C(c1cc(-c2ccco2)nc2ccccc12)N1CCCC(C(F)(F)F)C1 (stereo not shown) | -4.86 |
| COc1ccc(CCNC(=O)C(=O)NCC2OCCN2S(=O)(=O)c2ccccc2)cc1 (stereo not shown) | -4.26 |
| COc1ccccc1CNC(=O)CN1CCN(c2ccc(C(C)=O)cc2)CC1 | -26.2 |
| CC(C)c1ccc(N(CC(=O)NC2CCCCC2)C(=O)CNC(=O)c2ccco2)cc1 | -24.7 |
| O=C(O)c1cnc(-c2ccccc2)nc1Sc1ccccc1 | 14.2 |
| CC(C)CN(C(=O)CCCc1nc2ccccc2c(=O)[nH]1)c1c(N)n(Cc2ccccc2)c(=O)[nH]c1=O | 23.1 |
| CSCCC(NS(=O)(=O)c1c(Cl)cccc1Cl)C(=O)O (stereo not shown) | 37.2 |
| NC(=S)Nn1c(-c2ccccc2)nc2ccccc2c1=O | 11.2 |
| O=S(=O)(Nc1ccc(N2CCOCC2)cc1)c1cc(Cl)ccc1Cl | 4.1 |
| Cc1ccc(C(=O)CNc2nc3c(c(=O)[nH]c(=O)n3C)n2Cc2ccccc2)cc1 | 6.01 |
| CCOC(=O)c1ccccc1NS(=O)(=O)c1ccccc1 | -16.4 |
| CC(CNC(=O)c1ccc(OC2CCN(Cc3ccccn3)CC2)cc1)c1ccccc1 (stereo not shown) | -76.5 |
| COc1cc(NC(=O)C2=C(C)OCCS2)c(Cl)cc1C(=O)NCCN1CCN(C)CC1 | -47.1 |
| COc1ccc(C(=O)N2c3ccccc3C=CC2C#N)cc1 (stereo not shown) | -4.12 |
| COc1cc(Cl)c(S(=O)(=O)NCCN2CCOCC2)cc1Cl | 5.66 |

| Structure (SMILES) | hERG current change (%, negative = inhibition) at 10uM [%] |
| --- | --- |
| COc1cc(/C=C(\C#N)c2nc(-c3cc4ccccc4oc3=O)cs2)ccc1O | 7.93 |
| CN1C2CCC1C(COC(=O)c1ccccc1)C(O)C2 (stereo not shown) | 15.7 |
| COc1ccc([N+](=O)[O-])cc1NS(=O)(=O)c1cc(C(=O)N2CCN(C)CC2)ccc1OC | -10.4 |
| CC(=O)NCC1CCCN(c2nc3nonc3nc2N(C)Cc2ccccc2)C1 (stereo not shown) | -36 |
| O=C(NCc1ccccn1)c1ccc(Cn2c(=S)[nH]c3ccc(Br)cc3c2=O)cc1 | 32.3 |
| CC(C)(C)c1ccc(S(=O)(=O)N2C=CC(C(F)(F)F)=NCC2)cc1 | 6.13 |
| CCN1CCN(CC(=O)Nc2c(OC)cccc2OC)CC1.O=C(O)C(=O)O | 14.3 |
| CN1CCN(CC(=O)N2c3ccccc3C(C)(c3ccccc3)CC2(C)C)CC1 (stereo not shown) | -23.2 |
| CCOC(=O)c1cnc2nc(N3CCOCC3)nn2c1N | 3.01 |
| COc1ccc(-c2csc(NC(=O)C3CSC4(C)CCC(=O)N34)n2)cc1OC (stereo not shown) | 10.4 |
| CCn1cc(C(=O)O)c(=O)c2cnc(N3CCN(C(=S)NC(=O)c4ccc(OC)cc4)CC3)nc21 | 1.34 |
| CCOc1ccccc1C(=O)Oc1ccc2ccc(=O)oc2c1 | 11.7 |
| CCOC(=O)C1=C(C)Nc2sc(C(=O)c3ccc(Br)cc3)c(N)c2C1c1ccc(C(=O)OC)cc1 (stereo not shown) | 16.7 |
| CCCN(CCO)Cc1cccc(Cl)c1 | 3.29 |
| CCCn1c2c(c(O)c(C(=O)NCCCN(CC)CC)c1=O)CCCC2.Cl | -55 |
| Cn1nc(CC(=O)NC2CCCCC2)c2ccccc2c1=O | -1.44 |
| CC1=C(O)C(=O)OC1c1c(Cl)cccc1Cl (stereo not shown) | 7.86 |
| CCOc1ccc(NC(=O)CN(C)Cc2ccc3c(c2)OCO3)cc1S(=O)(=O)N1CCCC1 | -44.5 |
| CCOC(=O)C(C)Sc1nnc(Cc2cc(=O)[nH]c(=O)[nH]2)n1-c1ccc(Cl)cc1 (stereo not shown) | 2.15 |
| Cc1ccc(-c2nc(CS(=O)CC(=O)NCc3ccccc3)c(C)o2)cc1 (stereo not shown) | -30.1 |
| N#C/C(=C1\CCCN1)c1ccc2ccccc2n1 | 14.2 |
| COc1cccc(C(=O)Nc2nnc(-c3ccc(OC)cc3OC)s2)c1 | 7.65 |
| O=C(NCc1cccc(Cl)c1)c1cccc(OC2CCN(C(=O)C3CC3)CC2)c1 | -25.6 |
| Cc1ccc2nc(N3C(=O)C(O)=C(C(=O)c4ccc(C)o4)C3c3ccco3)sc2c1 (stereo not shown) | 12.8 |
| O=C(Nc1ccccc1C(F)(F)F)c1ccccc1Br | 10.8 |
| Nn1c(-c2ccccc2)nc2cc(Cl)ccc2c1=O | -3.27 |
| Cc1ccc(S(=O)(=O)NCCN=C(CN2CCOCC2)NS(=O)(=O)c2ccc(C)cc2)cc1 | -17.4 |
